The other results are listed elsewhere or left out.

The test concerns the target T1, OsWOX13 (Oryza sativa, UniProt Q5QMM3 1-267).
T1 sequence: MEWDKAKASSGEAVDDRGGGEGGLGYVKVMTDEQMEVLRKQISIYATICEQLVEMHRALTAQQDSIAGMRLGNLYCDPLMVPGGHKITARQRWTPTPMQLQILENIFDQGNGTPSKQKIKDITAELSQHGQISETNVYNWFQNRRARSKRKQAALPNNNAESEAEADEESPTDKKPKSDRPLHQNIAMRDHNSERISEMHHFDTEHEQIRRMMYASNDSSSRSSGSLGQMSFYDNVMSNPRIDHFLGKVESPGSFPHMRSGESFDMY
The test is described as follows: protein-binding microarray (RPBM); PBS, 2% BSA, 51.3 ng/ul salmon testes DNA, 50 uM zinc acetate, 200 nM TF, 25 C, 1 h; high values mean tight binding. As to conditions: protein: recombinant; tags: N-terminal polyhistidine and DsRed monomer fusion (pET32a); label: CyDye5-dUTP incorporated in the synthesized complementary strand; 3' TTTTT single-stranded linker to array surface; dsDNA, one strand shown. A digest of the protocol:
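An Axon 4000B scanner gave the binding signal as per-feature fluorescence intensity in arbitrary units. This followed washing of a custom Agilent array that had been incubated for 1 h at 25 °C with 200 nM protein in PBS, 2% BSA, salmon testes DNA and 50 µM zinc acetate. The proteins were transcription factors fused at the N-terminus to polyhistidine and DsRed, expressed in E. coli BL21-CodonPlus and purified on Ni–NTA.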
Turning to “ACAGTAATTATCCGCTAACCATGGATTAATATACCTCGTTCGGAGTCACCTAGTGCAG”, the binding signal was 32200 fluorescence intensity (a.u.).

Take “ACAATCAATCAAAGTTGTGTTTTGAAGACCGTGTCGTTATCGGAGTCACCTAGTGCAG”: the binding signal was 26400 fluorescence intensity (a.u.).

As for “AGAAATTTGTCAACAGATTTATAGCAAAATCGATACCGAACGGAGTCACCTAGTGCAG”, the binding signal was 9390 fluorescence intensity (a.u.).

Regarding “CGCTCAGTTAGGGACTAATTACTTAATTAGGAATTAATTACGGAGTCACCTAGTGCAG”, the binding signal is 10700 fluorescence intensity (a.u.).

Turning to “ACAAATTATCTTATTACCGTATTACGAGTCAGTCTTTGAACGGAGTCACCTAGTGCAG”, the binding signal is 16200 fluorescence intensity (a.u.).

Consider “TATGTAATCTAAATTGTCATGCCCAATCTGATCTACTTCACGGAGTCACCTAGTGCAG”, for which the binding signal is 6860 fluorescence intensity (a.u.).

With “ATGGATTAATTAGGCTTAATAAATTCGTGTCACAGTTTACCGGAGTCACCTAGTGCAG”, the binding signal was 34600 fluorescence intensity (a.u.).

For the sequence “CGATTGATTCCCTTCCTGATCTATGCTCCTGACCACTACTCGGAGTCACCTAGTGCAG”, the binding signal was 6020 fluorescence intensity (a.u.).

Consider “TTAAATTAGCAGAGGGAGATCTCGACTGGTCTCTCTGAGTCGGAGTCACCTAGTGCAG”, for which the binding signal is 11100 fluorescence intensity (a.u.).

On to “ACGTTAAAATTAAAAGTTTAATTGAAATTGAAATGATGTGCGGAGTCACCTAGTGCAG”, for which the binding signal is 23600 fluorescence intensity (a.u.).

Take “ATAATTGGTAAAGATGGATTCAAAATATTATTAATAATTGCGGAGTCACCTAGTGCAG”: the binding signal is 26200 fluorescence intensity (a.u.).

In the case of “AATAGTACTAATTAATTTCATGCTACACCAAACTTTTCTCCGGAGTCACCTAGTGCAG”, the binding signal was 12400 fluorescence intensity (a.u.).

Turning to “TTAATTGATTGAATCACATCCTTCCGGATTGTTTTGATCCCGGAGTCACCTAGTGCAG”, the binding signal was 40800 fluorescence intensity (a.u.).

Regarding “AATCAATCAGTGCGATTGCTGATGCATATAAAGAAGGGCTCGGAGTCACCTAGTGCAG”, the binding signal was 42800 fluorescence intensity (a.u.).

Regarding “TCTGTATAGATAGAGAAAATTAACTAGGATAGGGACGGATCGGAGTCACCTAGTGCAG”, the binding signal is 4540 fluorescence intensity (a.u.).

For “CTAGATGTAATTACTCTTTCCGTCCCAAAATATAATAACTCGGAGTCACCTAGTGCAG”, the binding signal is 8360 fluorescence intensity (a.u.).

Consider “AACCACTAAATTATTTATAGATGACAGGATTACAGTATGTCGGAGTCACCTAGTGCAG”, for which the binding signal was 9900 fluorescence intensity (a.u.).

For the sequence “AGATTGATCAGTGGAGCTTAATTTGCAAATTAACCAACATCGGAGTCACCTAGTGCAG”, the binding signal was 19300 fluorescence intensity (a.u.).

For “TTGAAAGCCTTAATTAGACACCCTTAATGCTCCAAGTATGCGGAGTCACCTAGTGCAG”, the binding signal is 6260 fluorescence intensity (a.u.).

On to “CAAGATGGGTCGGGTTGGGTGGGGTTACTCGCACTAGCACCGGAGTCACCTAGTGCAG”, for which the binding signal was 3150 fluorescence intensity (a.u.).

In the case of “CATCGTCATGACATGGAGTAATTGCATATGCAAACATTATCGGAGTCACCTAGTGCAG”, the binding signal was 4860 fluorescence intensity (a.u.).

With “TCCACAGATTGAGGAATCCGAGCAACAAATATCCTAGTAGCGGAGTCACCTAGTGCAG”, the binding signal was 11900 fluorescence intensity (a.u.).

Regarding “ACAAGTAATTTAAAACGGAAGTAGTATAGCAGTGATGTTTCGGAGTCACCTAGTGCAG”, the binding signal is 4460 fluorescence intensity (a.u.).

As for “CATGATTAGCCATAAGTGCTACAGTAACCCACATGTGCTACGGAGTCACCTAGTGCAG”, the binding signal was 34300 fluorescence intensity (a.u.).

For the sequence “CACCATTGCATGATTGCATCTGCATCACTGCATGCCAACGCGGAGTCACCTAGTGCAG”, the binding signal is 5680 fluorescence intensity (a.u.).

In the case of “ACATAGATTAGTAAGTGAAACAAAACATAGACGGCAAGCCCGGAGTCACCTAGTGCAG”, the binding signal is 11700 fluorescence intensity (a.u.).

As for “CCTAATGACGTCATCAAGCGACGTGCACTCTAAACACCATCGGAGTCACCTAGTGCAG”, the binding signal was 10100 fluorescence intensity (a.u.).

Regarding “AGCACAAATTAAATGGTAAATCCTAAAAGCATTGCGTATTCGGAGTCACCTAGTGCAG”, the binding signal was 17600 fluorescence intensity (a.u.).

Regarding “CACATGCACATATATATTGATAGATCATCTATACATAGATCGGAGTCACCTAGTGCAG”, the binding signal was 3360 fluorescence intensity (a.u.).

Consider “CGTATACATTTTACCATAATTTATATAATAATTGGTTTTACGGAGTCACCTAGTGCAG”, for which the binding signal was 8690 fluorescence intensity (a.u.).

Regarding “CAGACAGATAGAAAGAGACCTATATATATCGCCGATCAATCGGAGTCACCTAGTGCAG”, the binding signal was 3330 fluorescence intensity (a.u.).

On to “TAAATTTAATGTTATATCTGTAATTTTGTGACACACCGAACGGAGTCACCTAGTGCAG”, for which the binding signal is 8220 fluorescence intensity (a.u.).

Turning to “TATTGTGATTTAAGGATACGAATCAGATTCGATCACTAGTCGGAGTCACCTAGTGCAG”, the binding signal was 6190 fluorescence intensity (a.u.).

Consider “CTAGATTAGATTTGCACGGCATCACATGTAGTGCACGCGACGGAGTCACCTAGTGCAG”, for which the binding signal is 36500 fluorescence intensity (a.u.).

For the sequence “ATTATCAATTTGTTATTGTGTACCTCGGTTGACTCCTGGACGGAGTCACCTAGTGCAG”, the binding signal was 7760 fluorescence intensity (a.u.).

“TGCGATTATTAGCTTGTAATGATACTATCTGATCATGCAACGGAGTCACCTAGTGCAG”: the binding signal was 3450 fluorescence intensity (a.u.).

Take “TCAGACAAATTAAGTTTTAGCTTAGCTTATCACTTAACGGCGGAGTCACCTAGTGCAG”: the binding signal is 7680 fluorescence intensity (a.u.).

Take “AGGATGATTGATTGATAAATAAAGAAGAAACAGATTCTGCCGGAGTCACCTAGTGCAG”: the binding signal is 48000 fluorescence intensity (a.u.).

For “TTCTAAATTGTATTTCTATATGGACTCTAGTCTTCTCTTCCGGAGTCACCTAGTGCAG”, the binding signal is 4600 fluorescence intensity (a.u.).

As to “CATATAACCAATCATGTATGGAAGAATAGGGAGTCACACACGGAGTCACCTAGTGCAG”, the binding signal is 7910 fluorescence intensity (a.u.).

In the case of “TCTATACGTTTCAATTTAAATTTGACTACGGCTTATAAGACGGAGTCACCTAGTGCAG”, the binding signal was 7000 fluorescence intensity (a.u.).

As for “CACAAATTAAAAGTCACTTTGGCTCTGTTTGGCAAATGGGCGGAGTCACCTAGTGCAG”, the binding signal is 10300 fluorescence intensity (a.u.).

The values above are taken from article PMC7819943, “Rice protein-binding microarrays: a tool to detect cis-acting elements near promoter regions in rice”.
